# Experimental data published in paper PMC4336329 (PLoS ONE, 2015).
# Hit rate of the full screen: of about 310,000 compounds, about 2,200 (0.71%) showed an effect of 50% or more. The effect is printed as a negative number. This is one part of the list.
# Target: human ether-à-go-go-related gene (hERG) potassium channel (human, UniProt Q12809)
# Test: primary screen, population patch clamp on CHO cells stably expressing hERG
# Chain of human ether-à-go-go-related gene (hERG) potassium channel (Q12809 whole entry, looked up): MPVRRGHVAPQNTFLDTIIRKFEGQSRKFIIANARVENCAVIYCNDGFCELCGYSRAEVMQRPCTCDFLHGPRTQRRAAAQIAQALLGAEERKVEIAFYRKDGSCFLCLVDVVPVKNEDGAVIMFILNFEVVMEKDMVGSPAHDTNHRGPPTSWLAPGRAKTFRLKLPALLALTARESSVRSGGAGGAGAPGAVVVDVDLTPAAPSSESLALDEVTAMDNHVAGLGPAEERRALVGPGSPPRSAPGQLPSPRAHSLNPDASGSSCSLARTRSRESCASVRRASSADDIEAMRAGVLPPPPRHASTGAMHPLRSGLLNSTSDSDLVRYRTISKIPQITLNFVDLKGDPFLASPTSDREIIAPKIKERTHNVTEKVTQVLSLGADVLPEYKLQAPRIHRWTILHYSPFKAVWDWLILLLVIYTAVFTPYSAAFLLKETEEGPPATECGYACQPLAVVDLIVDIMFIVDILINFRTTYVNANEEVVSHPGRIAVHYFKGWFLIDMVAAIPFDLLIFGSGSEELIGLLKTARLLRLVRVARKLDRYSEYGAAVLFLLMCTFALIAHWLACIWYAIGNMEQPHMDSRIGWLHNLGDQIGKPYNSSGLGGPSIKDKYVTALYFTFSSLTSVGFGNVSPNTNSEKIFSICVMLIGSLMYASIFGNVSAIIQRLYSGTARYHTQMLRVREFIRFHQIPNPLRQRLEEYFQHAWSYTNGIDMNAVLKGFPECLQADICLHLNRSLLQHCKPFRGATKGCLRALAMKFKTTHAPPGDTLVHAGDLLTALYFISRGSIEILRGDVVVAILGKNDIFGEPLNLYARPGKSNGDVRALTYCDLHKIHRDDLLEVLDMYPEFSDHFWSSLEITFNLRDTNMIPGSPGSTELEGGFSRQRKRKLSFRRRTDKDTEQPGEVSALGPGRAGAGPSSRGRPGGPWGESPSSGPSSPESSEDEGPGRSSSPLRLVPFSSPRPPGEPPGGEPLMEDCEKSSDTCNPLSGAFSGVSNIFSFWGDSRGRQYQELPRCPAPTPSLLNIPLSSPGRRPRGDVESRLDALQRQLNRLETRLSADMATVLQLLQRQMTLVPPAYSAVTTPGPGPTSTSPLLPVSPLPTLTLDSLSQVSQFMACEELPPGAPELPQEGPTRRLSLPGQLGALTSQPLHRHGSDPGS
row,Structure (SMILES),"hERG current change (%, negative = inhibition) at 1uM"
1,CC(C)C[C@H](NC(=O)NCc1ccc(Cl)cc1)C(=O)O,9.7%
2,Cc1cc(C)n2nc(SCCCC(=O)c3ccccc3)nc2n1,6.04%
3,COc1ccccc1N(CC(=O)NC1CCCCC1)C(=O)CNC(=O)c1cccs1,10.5%
4,O=C1OCCC1Sc1nnc(-c2ccc(Cl)cc2Cl)o1 (stereo not shown),4.66%
5,O=C(Nc1ccccc1C(=O)O)c1cc(S(=O)(=O)N2CCCCC2)cs1,12.6%
6,CCOc1ccc(NS(=O)(=O)c2cc(C(=O)NCC3CCCO3)ccc2Cl)cc1 (stereo not shown),21.8%
7,COC(=O)c1c(NC(=O)Cc2cccs2)sc2c1CCC(C)C2 (stereo not shown),2.54%
8,OC1(c2cccc(C(F)(F)F)c2)CCN(Cc2nnnn2Cc2ccccc2)CC1,9.44%
9,O=C(Nc1cc2cccc([N+](=O)[O-])c2oc1=O)c1cccs1,12.9%
10,C/C=C(\C)C(=O)Nc1cccc(C2=NOC3(C2)C[C@H](C(N)=O)N(C(=O)C(c2ccccc2)c2ccccc2)C3)c1 (stereo partly shown),13.3%
11,CSc1nnc(CCNS(=O)(=O)c2ccccc2Br)n1C,15.3%
12,COc1ccc(C(C(=O)NCC2CCCO2)N(C(=O)c2snc(C(N)=O)c2N)c2ccccc2C)cc1OC (stereo not shown),0.284%
13,CC1(C)Cc2cccc(OCC(=O)Nc3ccc(S(N)(=O)=O)cc3)c2O1,5.94%
14,O=C(CNC1CCCCCC1)Nc1ccc(S(=O)(=O)NC2CC2)cc1,10.3%
15,CCCCCCNC(=O)CC(NS(=O)(=O)c1ccc(NC(C)=O)cc1)C(C)C (stereo not shown),-0.978%
16,O=S(=O)(Nc1nc2ccccc2nc1Nc1cccc(S(=O)(=O)N2CCCCC2)c1)c1ccccc1,3.86%
17,COc1ccc(/C=C(\C#N)C(=O)Nc2cccc3ncccc23)cc1OC.Cl,3.7%
18,Cc1ccccc1C1C(C#N)=C(N)N(N(C)C)C2=C1C(=O)CC(C)(C)C2 (stereo not shown),-1.65%
19,CCOC(=O)c1c(NC(=S)Nc2ccccc2)sc(C)c1C,4.82%
20,Cc1nn(Cc2c(F)c(F)c(F)c(F)c2F)c(C)c1NC(=O)c1ccc(COc2cc(Cl)ccc2Cl)cc1,3.37%
21,Fc1ccc(NC(=S)N2CCCC2)cc1Cl,12.9%
22,CC(C)(C)NC(=O)COc1coc(CN2CCN(Cc3ccccc3)CC2)cc1=O,3.39%

row,Structure (SMILES),"hERG current change (%, negative = inhibition) at 1uM"
1,COc1cc(C(=O)Nc2cc(C)c(OCC(=O)N3CCOCC3)c(C)c2)cc(OC)c1OC,10.5%
2,COc1ccc(CCNS(=O)(=O)c2cc3c4c(c2)C(C)C(=O)N4CCC3)cc1OC (stereo not shown),18.7%
3,CCCCOC(=O)C1=C(C)Nc2ncnn2C1c1ccc(OC)c(OC)c1OC (stereo not shown),-8.06%
4,Cc1onc(-c2ccccc2)c1CNS(=O)(=O)c1cccc(Cl)c1,7.23%
5,CCOC(=O)C1CCN(C(=O)c2cc(S(=O)(=O)N(C)C)ccc2N2CCCC2)CC1,-7.41%
6,C1CC(CN2CCOCC2)CN(c2nc3nonc3nc2N2CCSCC2)C1 (stereo not shown),17.4%
7,CCN(CC)c1cc(C)c2cc(NC(=O)CNC(C)=O)ccc2n1,3.2%
8,C/C(CC(=O)NC1CCCCC1)=N\NC(=O)c1ccc(Br)cc1,8.83%
9,CSc1ccc(/C=N/NC(=O)c2sccc2C)cc1,12.6%
10,CCCSc1ncc(Cl)c(C(=O)Nc2ccc(S(=O)(=O)N3CC(C)OC(C)C3)cc2)n1 (stereo not shown),-7.58%
11,CC(C)CCNC(=O)C1CCC(=O)N1CCc1ccccc1 (stereo not shown),12.2%
12,O=C(NCCc1ccccc1)C1CCN(S(=O)(=O)c2cccs2)CC1,1.8%
13,CCN(CC(=O)Nc1c(F)cccc1F)C(=O)c1ccc(C#N)cc1,8.99%
14,O=C(NCCNC(=O)c1ccc(Cl)cc1Cl)c1cnccn1,6.54%
15,COc1ccccc1-c1ccc(SCc2ccc(C)cc2)nn1,9.22%
16,Cc1noc(C)c1C(=O)NNc1cc(Cl)ccc1Cl,14.6%
17,CC1CCCC(NC(=O)COC(=O)c2ccccc2NC(=O)c2ccco2)C1C (stereo not shown),7.45%
18,CC(Sc1nnc(-c2cccnc2)n1N)C(=O)N1CCOCC1 (stereo not shown),-2.12%
19,Nc1cc(N)nc(SCCN2CCCCC2)n1,6.82%
20,COc1ccccc1C(C)Nc1nc(-c2cccnc2)nc2ccccc12 (stereo not shown),12.2%
21,COC(=O)c1sc(N)c(C(=O)OC)c1CSc1nnc(-c2ccccc2Cl)n1C,7.57%
22,CCOC(=O)c1c(NC(=O)C[n+]2ccc(Cc3ccccc3)cc2)sc(C)c1C.[Cl-],6.34%

row,Structure (SMILES),"hERG current change (%, negative = inhibition) at 1uM"
1,Cc1cccc(NC(=O)c2nnn(-c3cccc(C(F)(F)F)c3)c2N)c1,-0.184%
2,O=c1[nH]c2ccccc2nc1C(Cl)c1ccccc1 (stereo not shown),1.52%
3,COC(=O)[C@@H]1CCCN1C(=O)CCc1nnc(C2CCCCC2)o1,10.1%
4,Cc1ccc(NC(=S)NC(=O)c2cncc(Br)c2)cc1Cl,25.6%
5,Cc1cc(C)nc(SCC(=O)Nn2cnnc2)n1,17.2%
6,Cc1cc(NC(=O)C2CC(c3ccc(F)cc3)=NO2)n(-c2ccccc2)n1 (stereo not shown),12%
7,C/C(CC(=O)NC1CCCC1)=N\NC(=O)c1ccc([N+](=O)[O-])c(Cl)c1,13.8%
8,O=C(CCn1c(=O)c2sccc2n(CC(=O)OCc2ccccc2)c1=O)NCc1ccco1,-11.6%
9,CCCCNC(=O)c1c[nH]c2ccc(S(=O)(=O)Nc3ccc(OCC)cc3)cc2c1=O,1.53%
10,O=C(c1ccco1)N1N=C(c2ccccc2)CC1c1ccc2nccnc2c1 (stereo not shown),0.01%
11,Cc1ccc(C)n1-n1cnc2sc(-c3ccccc3)cc2c1=O,11.7%
12,COc1ccc(C(=O)C(C)[n+]2ccc(C)c3ccccc32)cc1[N+](=O)[O-].[Br-] (stereo not shown),13.5%
13,CN1CCN(c2ccccc2NC(=O)c2ccc(N3CCOCC3)c([N+](=O)[O-])c2)CC1,4.72%
14,CN(C)S(=O)(=O)c1cc(NC(=O)COC(=O)CCSc2ccc(Cl)cc2)ccc1Cl,5.36%
15,CN(C)c1ccc(S(=O)(=O)N2CCCCC2)cc1NC(=O)C1=COCCO1,1.37%
16,Cc1ccc(-n2nc(C)c3c2OC(N)=C(C#N)C3c2ccc(F)cc2)cc1 (stereo not shown),16.7%
17,CC(C)c1ccc(S(=O)(=O)N2CCN(C(=O)CCNS(=O)(=O)c3ccccc3F)CC2)cc1,8.57%
18,COc1ccc(-n2c(SCC(=O)Nc3ccccc3)nnc2-c2ccoc2C)cc1,11.7%
19,CCN(CC)C(=O)CSc1nsc(SCC(=O)N(CC)CC)c1C#N,12.9%
20,COc1ccccc1-n1cnc2cc(NCc3ccco3)ccc21,6.42%
21,COc1ccc(C(=O)COC(=O)Cn2cnc3c2c(=O)n(C)c(=O)n3C)c(OC)c1,13.2%
22,OCC[C@H]1C[C@@H](O)[C@H](O)[C@@]2(CCCO2)O1,12.5%

row,Structure (SMILES),"hERG current change (%, negative = inhibition) at 1uM"
1,COCCCNC(=O)c1ccccc1-c1cc(C)no1,15.5%
2,Cl.c1csc(CNCCCN2CCOCC2)c1,13.2%
3,CCCCc1cc(=O)oc2cc(OC3CCCCC3=O)ccc12 (stereo not shown),22.7%
4,COc1ccc(CNCCc2ccccc2F)c(OC)c1C.O=C(O)C(=O)O,5.79%
5,CC(C)N1CCc2c(sc(NC(=S)NC(=O)c3ccccc3)c2C#N)C1,16.8%
6,O=C(CCC1CCCN(C(=O)c2ccc3c(c2)OCO3)C1)N1CCN(c2ccccn2)CC1 (stereo not shown),4.37%
7,N/C(=N\OC(=O)Cc1ccccc1[N+](=O)[O-])c1cccc(Br)c1,3.85%
8,COc1ccc(C2=NOC(C(=O)N3CCCc4ccccc43)C2)cc1 (stereo not shown),6.37%
9,CSc1ccc(S(=O)(=O)N2CCC(C(=O)NCc3ccncc3)CC2)cc1,14%
10,Cc1cc(NCc2ccccn2)n2nc(C)c(-c3ccc(Cl)cc3)c2n1,8.52%
11,COc1ccc(/C(O)=C2/C(=O)C(=O)N(CCN3CCOCC3)C2c2cccnc2)cc1OC (stereo not shown),4.14%
12,Cc1cc(C)n(-c2ccc(NC(=O)C3CCN(Cc4cc(C)c(C)o4)CC3)cc2)n1,-5.31%
13,Clc1cccc(Nc2ncnc3c2cnn3-c2ccccc2)c1,13.9%
14,Cc1ccccc1Cn1nc(C)c(NC(=O)/C=C/c2cnn(C)c2)c1C,14.6%
15,CCCCNC(=O)[C@H]1N2C(=O)c3c(ccc(OC)c3OC)C2SC1(C)C (stereo partly shown),18.2%
16,Cc1ccc(OCC(=O)NNC(=O)C2CC(=O)N(c3ccc4c(c3)OCCO4)C2)cc1 (stereo not shown),6.24%
17,COc1ccc(/C=N/OC(=O)Nc2ccc(Cl)cc2)c(OC)c1,11.1%
18,O=C(NCc1ccco1)c1nc2c(nnn2Cc2cccc(Cl)c2)c(=O)[nH]1,10.9%
19,CCOc1ccc(Oc2ccc(S(=O)(=O)N3CCOCC3)cc2NC(=O)CCNC(C)=O)cc1,4.54%
